The list shows a part of the results. Repeats are few or missing, and single values can be far off.

Test systems include WM115; WM1716; WM1745; WM3526; WM3619; WM451Lu.
Holding throughout (test): cell count relative to DMSO control; melanoma cells; higher = more viable cells
Conditions in all cases: library dose: low library concentration; 72 h
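Also: cell number obtained by counting DAPI-stained nuclei in high-throughput microscope images with image analysis software, screen run in 1,536-well plates.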

Consider `Cn1cc(C2=C(c3cn(C4CCN(Cc5ccccn5)CC4)c4ccccc34)C(=O)NC2=O)c2ccccc21` [Enzastaurin] + C[C@]12O[C@H](C[C@]1(O)CO)n1c3ccccc3c3c4c(c5c6ccccc6n2c5c31)CNC4=O [Lestaurtinib] (first compound 0.8 µM, partner dose 0.004 µM), for which the cell count in the assay with WM115 was found to be 95.5%; in the assay with WM1716, 96.1%; in the assay with WM1745 it was 78.9%; with WM3526, 86.6%; in the assay on WM3619 it was 97.8%; in the assay on WM451Lu it was 103%.

For the compound `Cn1cc(C2=C(c3cn(C4CCN(Cc5ccccn5)CC4)c4ccccc34)C(=O)NC2=O)c2ccccc21` [Enzastaurin] + C[C@]1(O)C[C@@H](c2nc(-c3ccc4ccc(-c5ccccc5)nc4c3)c3c(N)nccn32)C1 [OSI906] (first compound 0.8 µM, partner dose 0.4 µM), the cell count with WM115 came out at 99.6%; in the assay on WM1716 it was 95.5%; in the assay on WM1745, 99.3%; with WM3526, 113%; in the assay with WM3619, 92.5%; with WM451Lu, 105%.

In the case of `N.N.[Cl][Pt][Cl]` [cisplatin] + C[C@]1(c2nc3c(C(N)=O)cccc3[nH]2)CCCN1 [Veliparib] (first compound 1.6 µM, partner dose 1.4 µM), the cell count came to 85.9% in the assay with WM115; 85.2% in the assay with WM1716; 93.6% in the assay with WM1745; 85.5% in the assay on WM3526; 79.6% with WM3619; 113% in the assay on WM451Lu.

As for `N.N.[Cl][Pt][Cl]` [cisplatin] + C[C@@H]1CCN(C(=O)CC#N)C[C@@H]1N(C)c1ncnc2[nH]ccc12 [CP690550] (first compound 1.6 µM, partner dose 1 µM), the cell count in the assay on WM115 was determined as 90.5%; in the assay with WM1716, 85.4%; in the assay on WM1745 it was 96.8%; in the assay with WM3526 it was 90.5%; in the assay on WM3619, 92.6%; with WM451Lu, 93.5%.

Consider `C[As](C)SC[C@H](NC(=O)CC[C@H](N)C(=O)O)C(=O)NCC(=O)O` [Darinaparsin] + Oc1nc(-c2ccc(C(F)(F)F)cc2)nc2c1CSCC2 [XAV939] (first compound 0.4 µM, partner dose 2 µM), for which the cell count amounted to 84.5% in the assay with WM115; 82.1% with WM1716; 72.2% with WM1745; 121% in the assay with WM3526; 119% with WM3619; 105% in the assay with WM451Lu.

Take `C[As](C)SC[C@H](NC(=O)CC[C@H](N)C(=O)O)C(=O)NCC(=O)O` [Darinaparsin] + COc1ccc(-c2ccc3c(N4CCOCC4)nc(N4C[C@@H](C)O[C@@H](C)C4)nc3n2)cc1CO [KU0063794] (first compound 0.4 µM, partner dose 0.02 µM): the cell count was 90.9% with WM115; 84.5% in the assay on WM1716; 91.7% in the assay with WM1745; 115% in the assay on WM3526; 91.4% with WM3619; 89.4% with WM451Lu.

For the compound `Cn1cc(C2=C(c3cn(C4CCN(Cc5ccccn5)CC4)c4ccccc34)C(=O)NC2=O)c2ccccc21` [Enzastaurin] + CCN(CC)CCNC(=O)c1c(C)[nH]c(/C=C2\C(=O)Nc3ccc(F)cc32)c1C [sunitinib] (first compound 0.8 µM, partner dose 0.4 µM), the cell count in the assay on WM115 was 116%; with WM1716, 123%; with WM1745, 88.9%; with WM3526, 108%; in the assay on WM3619, 94.3%; in the assay on WM451Lu it was 129%.

`C[As](C)SC[C@H](NC(=O)CC[C@H](N)C(=O)O)C(=O)NCC(=O)O` [Darinaparsin] + CN(C)S(=O)(=O)c1ccc2c(c1)/C(=C/c1cc3c([nH]1)CCCC3)C(=O)N2 [SU6656] (first compound 0.4 µM, partner dose 0.4 µM): the cell count in the assay with WM115 turned out to be 99.7%; in the assay with WM1716, 113%; in the assay on WM1745, 104%; in the assay with WM3526, 88.6%; in the assay with WM3619, 97.3%; in the assay on WM451Lu it was 108%.

Consider `C[C@]12O[C@H](C[C@]1(O)CO)n1c3ccccc3c3c4c(c5c6ccccc6n2c5c31)CNC4=O` [Lestaurtinib] + NCC(=O)Nc1ccc(-n2nc(C(F)(F)F)cc2-c2ccc3c(ccc4ccccc43)c2)cc1 [OSU03012] (first compound 0.004 µM, partner dose 1 µM), for which the cell count came out at 101% in the assay on WM115; 104% in the assay on WM1716; 95.3% in the assay with WM1745; 57.8% with WM3526; 113% with WM3619; 70.8% with WM451Lu.

For the compound `Cn1cc(C2=C(c3cn(C4CCN(Cc5ccccn5)CC4)c4ccccc34)C(=O)NC2=O)c2ccccc21` [Enzastaurin] + COc1ccc(Cl)c(Nc2nc3ccccc3nc2NS(=O)(=O)c2cccc(NC(=O)C(C)(C)N)c2)c1 [XL147] (first compound 0.8 µM, partner dose 0.8 µM), the cell count in the assay with WM115 worked out at 101%; in the assay on WM1716 it was 110%; in the assay on WM1745, 76.6%; in the assay on WM3526 it was 105%; in the assay with WM3619, 86.2%; with WM451Lu it was 97.5%.

In the case of `C[C@]12O[C@H](C[C@]1(O)CO)n1c3ccccc3c3c4c(c5c6ccccc6n2c5c31)CNC4=O` [Lestaurtinib] + C[C@]1(O)C[C@@H](c2nc(-c3ccc4ccc(-c5ccccc5)nc4c3)c3c(N)nccn32)C1 [OSI906] (first compound 0.004 µM, partner dose 0.4 µM), the cell count in the assay on WM115 is 101%; in the assay with WM1716, 99.8%; in the assay with WM1745, 64.8%; in the assay with WM3526 it was 62.9%; in the assay on WM3619, 111%; in the assay with WM451Lu it was 98.2%.

Take `Cn1cc(C2=C(c3cn(C4CCN(Cc5ccccn5)CC4)c4ccccc34)C(=O)NC2=O)c2ccccc21` [Enzastaurin] + O=C1NC(=O)/C(=C/c2ccc(-c3ccc(F)cc3O)o2)S1 [AS252424] (first compound 0.8 µM, partner dose 1 µM): the cell count in the assay on WM115 came out at 107%; in the assay with WM1716, 99.3%; in the assay on WM1745, 96.8%; with WM3526, 91.4%; in the assay on WM3619, 116%; in the assay with WM451Lu, 101%.

`C[As](C)SC[C@H](NC(=O)CC[C@H](N)C(=O)O)C(=O)NCC(=O)O` [Darinaparsin] + O=C(CCCCCCC(=O)Nc1ccccc1)NO [vorinostat] (first compound 0.4 µM, partner dose 0.08 µM): the cell count with WM115 came to 107%; in the assay on WM1716, 112%; with WM1745, 120%; in the assay with WM3526, 96.6%; with WM3619 it was 104%; in the assay with WM451Lu it was 80.3%.

For the compound `C[As](C)SC[C@H](NC(=O)CC[C@H](N)C(=O)O)C(=O)NCC(=O)O` [Darinaparsin] + c1cc(-c2cnn3cc(-c4ccc(OCCN5CCCCC5)cc4)cnc23)ccn1 [Dorsomorphin] (first compound 0.4 µM, partner dose 0.4 µM), the cell count in the assay on WM115 was found to be 104%; in the assay with WM1716, 93.5%; in the assay on WM1745, 75.3%; with WM3526, 90.3%; in the assay on WM3619, 92.3%; in the assay on WM451Lu, 100%.

Take `Cn1cc(C2=C(c3cn(C4CCN(Cc5ccccn5)CC4)c4ccccc34)C(=O)NC2=O)c2ccccc21` [Enzastaurin] + Cn1c(Nc2ccc(C(F)(F)F)cc2)nc2cc(Oc3ccnc(-c4ncc(C(F)(F)F)[nH]4)c3)ccc21 [CHIR265] (first compound 0.8 µM, partner dose 0.08 µM): the cell count in the assay with WM115 turned out to be 68.1%; in the assay on WM1716, 85.1%; with WM1745 it was 67.9%; with WM3526, 71.6%; with WM3619, 78.4%; in the assay on WM451Lu, 111%.

Turning to `N.N.[Cl][Pt][Cl]` [cisplatin] + CCCCCCCCCCCC1=C(O)C(=O)C=C(O)C1=O [Embelin] (first compound 1.6 µM, partner dose 1.2 µM), the cell count was 101% in the assay with WM115; 97.9% in the assay with WM1716; 110% in the assay with WM1745; 94.2% in the assay with WM3526; 107% in the assay on WM3619; 115% in the assay with WM451Lu.

Regarding `C[C@]12O[C@H](C[C@]1(O)CO)n1c3ccccc3c3c4c(c5c6ccccc6n2c5c31)CNC4=O` [Lestaurtinib] + C[As](C)SC[C@H](NC(=O)CC[C@H](N)C(=O)O)C(=O)NCC(=O)O [Darinaparsin] (first compound 0.004 µM, partner dose 0.4 µM), the cell count in the assay on WM115 stood at 102%; in the assay on WM1716 it was 114%; in the assay with WM1745, 99.2%; with WM3526, 97.9%; with WM3619 it was 79.5%; with WM451Lu, 103%.

As for `N.N.[Cl][Pt][Cl]` [cisplatin] + COc1ccc(Cl)c(Nc2nc3ccccc3nc2NS(=O)(=O)c2cccc(NC(=O)C(C)(C)N)c2)c1 [XL147] (first compound 1.6 µM, partner dose 0.8 µM), the cell count with WM115 was 96.2%; with WM1716, 101%; with WM1745, 106%; with WM3526 it was 116%; in the assay with WM3619, 118%; with WM451Lu, 106%.

For the compound `C[C@]12O[C@H](C[C@]1(O)CO)n1c3ccccc3c3c4c(c5c6ccccc6n2c5c31)CNC4=O` [Lestaurtinib] + Cc1cc([N+](=O)[O-])ccc1NS(=O)(=O)c1cc(Cl)ccc1Cl [FH535] (first compound 0.004 µM, partner dose 1 µM), the cell count was 87.5% with WM115; 101% in the assay on WM1716; 76% in the assay on WM1745; 88.9% in the assay on WM3526; 106% in the assay on WM3619; 100% in the assay with WM451Lu.

For the compound `N.N.[Cl][Pt][Cl]` [cisplatin] + OCCn1cc(-c2cnc3nnn(Cc4ccc5ncccc5c4)c3n2)cn1 [PF04217903] (first compound 1.6 µM, partner dose 1 µM), the cell count with WM115 was determined as 94.1%; in the assay on WM1716, 97.8%; in the assay on WM1745 it was 86.8%; with WM3526, 91.7%; with WM3619, 91.8%; with WM451Lu, 103%.

`Cn1cc(C2=C(c3cn(C4CCN(Cc5ccccn5)CC4)c4ccccc34)C(=O)NC2=O)c2ccccc21` [Enzastaurin] + COCC[n+]1c2c(n(Cc3cnccn3)c1C)C(=O)c1ccccc1C2=O [YM155] (first compound 0.8 µM, partner dose 0.0004 µM): the cell count with WM115 turned out to be 107%; in the assay on WM1716, 85.5%; in the assay with WM1745 it was 99.7%; in the assay with WM3526, 72.3%; with WM3619 it was 110%; with WM451Lu, 66.4%.

Consider `C[As](C)SC[C@H](NC(=O)CC[C@H](N)C(=O)O)C(=O)NCC(=O)O` [Darinaparsin] + NC(=O)Nc1cc(-c2cccc(F)c2)sc1C(=O)N[C@H]1CCCNC1 [AZD7762] (first compound 0.4 µM, partner dose 0.02 µM), for which the cell count in the assay with WM115 came to 89.4%; in the assay with WM1716 it was 105%; in the assay on WM1745 it was 95.8%; with WM3526, 92%; in the assay with WM3619, 89.2%; in the assay with WM451Lu, 102%.

As for `Cn1cc(C2=C(c3cn(C4CCN(Cc5ccccn5)CC4)c4ccccc34)C(=O)NC2=O)c2ccccc21` [Enzastaurin] + O=C(O)C(=O)Nc1sc2c(c1C(=O)O)CCNC2 [TCS401] (first compound 0.8 µM, partner dose 1.66667 µM), the cell count with WM115 amounted to 108%; in the assay on WM1716, 101%; with WM1745, 80.9%; with WM3526, 100%; in the assay on WM3619, 106%; in the assay with WM451Lu, 131%.
